In publication PMC4336329 (PLoS ONE, 2015):
The whole screen tested about 310,000 compounds, of which about 14,000 (4.5%) showed an effect of 50% or more. Effects have a minus sign here. This is one part of the list.

Each molecule was assayed against human ether-à-go-go-related gene (hERG) potassium channel (human, UniProt Q12809) (assay: primary screen, population patch clamp on CHO cells stably expressing hERG).
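Further: peak tail current of the secondary pulse compared with the same well before compound.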

human ether-à-go-go-related gene (hERG) potassium channel, sequence (Q12809 whole entry, looked up): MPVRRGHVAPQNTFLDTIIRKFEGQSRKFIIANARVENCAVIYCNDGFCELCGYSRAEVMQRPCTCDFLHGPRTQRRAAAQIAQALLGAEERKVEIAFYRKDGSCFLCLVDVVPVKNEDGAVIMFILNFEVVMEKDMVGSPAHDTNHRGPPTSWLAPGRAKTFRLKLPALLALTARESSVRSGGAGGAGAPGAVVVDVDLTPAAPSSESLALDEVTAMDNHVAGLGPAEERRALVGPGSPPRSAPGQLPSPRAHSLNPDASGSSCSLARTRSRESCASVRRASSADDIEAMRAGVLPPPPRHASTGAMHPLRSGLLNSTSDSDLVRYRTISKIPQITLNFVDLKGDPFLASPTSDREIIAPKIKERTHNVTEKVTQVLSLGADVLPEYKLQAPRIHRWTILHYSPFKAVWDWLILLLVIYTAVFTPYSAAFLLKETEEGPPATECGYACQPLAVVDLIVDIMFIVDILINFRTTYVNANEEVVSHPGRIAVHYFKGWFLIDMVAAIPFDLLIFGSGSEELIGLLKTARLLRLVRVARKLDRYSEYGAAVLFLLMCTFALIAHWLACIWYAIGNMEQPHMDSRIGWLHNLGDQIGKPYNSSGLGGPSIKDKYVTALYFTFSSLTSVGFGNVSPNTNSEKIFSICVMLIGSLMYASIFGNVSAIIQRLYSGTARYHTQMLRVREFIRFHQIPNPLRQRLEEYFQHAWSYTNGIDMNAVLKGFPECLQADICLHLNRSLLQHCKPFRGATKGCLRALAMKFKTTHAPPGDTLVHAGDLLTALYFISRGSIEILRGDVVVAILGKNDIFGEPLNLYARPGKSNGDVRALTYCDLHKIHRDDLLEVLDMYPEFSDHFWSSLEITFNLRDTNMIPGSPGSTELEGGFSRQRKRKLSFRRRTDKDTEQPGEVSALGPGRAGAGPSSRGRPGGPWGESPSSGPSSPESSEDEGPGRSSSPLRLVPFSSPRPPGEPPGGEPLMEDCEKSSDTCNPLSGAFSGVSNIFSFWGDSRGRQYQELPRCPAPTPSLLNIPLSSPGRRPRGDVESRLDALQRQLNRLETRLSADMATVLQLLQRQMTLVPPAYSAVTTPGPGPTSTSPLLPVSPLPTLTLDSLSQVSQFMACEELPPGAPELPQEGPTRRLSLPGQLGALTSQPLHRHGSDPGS

| Structure (SMILES) | hERG current change (%, negative = inhibition) at 10uM [%] |
| --- | --- |
| CCC/C=C(\CCC)C(NC(=O)CCc1ccccc1)c1ccc(C(F)(F)F)cc1 (stereo not shown) | 6.67 |
| O=C1CC(SC(=Nc2ccccc2)Nc2ccccc2)C(=O)N1c1ccc(Cl)cc1 (stereo not shown) | 19.4 |
| O=C(COC(=O)C1CCN(S(=O)(=O)c2cccs2)CC1)Nc1ccccc1Br | -49 |
| COc1ccc(-c2nc(CS(=O)CC(=O)NCCCN3CCOCC3)c(C)o2)cc1OC (stereo not shown) | 5.05 |
| COC(=O)CSC1=C(C#N)C(c2ccccc2OC)C(C(=O)OC)C(=O)N1 (stereo not shown) | 15.6 |
| CCOC(=O)C1CCCN(C(=O)c2cc(S(=O)(=O)N3CCCCC3)ccc2C)C1 (stereo not shown) | -10.2 |
| Cc1cc(C)nc(NS(=O)(=O)c2ccc(NC(=O)C(C)C)cc2)n1 | 18.9 |
| CC(=O)Nc1ccc(NC(=O)C(C)OC(=O)C2CC3C=CC2C3)cc1 (stereo not shown) | -2.31 |
| Nc1nc(-c2ccccc2)c(-c2ccc([N+](=O)[O-])cc2)s1 | -8.13 |
| COc1ccc(C(=O)/C=C(\C)Nc2ccc(NC(C)=O)cc2)cc1 | -14.8 |
| CC(C)(C)NC(=O)Cn1nnc(-c2ccc(OCc3c(F)cccc3Cl)cc2)n1 | 9.07 |
| CCO[C@H]1OC(C(=O)Nc2ccccc2)=C[C@@H](c2ccc(Br)cc2)[C@@H]1CCCO | -4.47 |
| OCCN(Cc1ccccc1)CC1CC=CCC1 (stereo not shown) | -10.8 |
| COc1ccc(Br)cc1/C=N/NC(=O)Cn1nnnc1N | 17.9 |
| Cn1nccc1C(=O)NC1CCN(Cc2ccccc2)CC1 | -14.4 |
| O=C1C(=O)N(CCN2CCOCC2)C(c2ccccn2)/C1=C(/O)c1ccc(Cl)cc1 (stereo not shown) | 6.78 |
| Cc1cc(Cl)ccc1NNC(=O)c1cccs1 | 3.09 |
| Cc1ccc(NC(=O)CCSc2ccccn2)cc1 | 14.5 |
| CCCc1cc(C(=O)Nc2cccc(Cl)c2C)no1 | -15.1 |
| Cc1ccc(C(=O)CC(c2cccs2)S(=O)(=O)c2ccc(C)cc2)cc1 (stereo not shown) | 11.5 |
| Cc1ccc(Nc2nc3nonc3nc2N(C)C)cc1 | 4.56 |
| Cc1c(O)ccc2c(CN3CCN(Cc4ccccc4)CC3)cc(=O)oc12 | -61.9 |
| COc1ccc(-c2nc(CN3CCCC(C(=O)NC4CCCC4)C3)c(C)o2)cc1 (stereo not shown) | -64.4 |
| CCCNC(=S)Nc1cc2oc3ccccc3c2cc1OC | 11.8 |
| O=C1C(Cl)=C(N2CCCC2)C(=O)N1c1ccc(F)cc1 | 0.422 |
